# Some of the results follow.
# System: HepG2
# Assay: cytotoxicity call (relative viability < 0.9)
# Conditions: 10 µM
row,SMILES,cytotoxicity call
1,Cc1noc(C)c1NC(=O)Nc1ccc2c(c1)C(=O)N([C@H](C)CO)C[C@H](C)[C@@H](CN(C)Cc1ccncc1)OCCCC[C@H](C)O2,inactive
2,CN(C)Cc1cn(CC[C@H]2CC[C@H](NC(=O)Cc3cccnc3)[C@@H](CO)O2)nn1,inactive
3,COc1ccc(C#Cc2cnc3c(c2)C(=O)N([C@H](C)CO)C[C@H](C)[C@H](CN(C)Cc2ccncc2)O3)cc1OC,inactive
4,C[C@H](CO)N1C[C@H](C)[C@H](CN(C)Cc2ccc(Cl)c(Cl)c2)OCc2ccccc2-c2c(n(C)c3ccccc23)C1=O,active
5,C[C@H]1CN([C@@H](C)CO)C(=O)c2cc(NC(=O)CCC(F)(F)F)ccc2O[C@@H]1CN(C)C(=O)Nc1cccc2ccccc12,inactive
6,C[C@@H]1CCCCO[C@H](CN(C)S(=O)(=O)c2cccs2)[C@@H](C)CN([C@H](C)CO)C(=O)c2cc(NC(=O)NC3CCCCC3)ccc2O1,inactive
7,Cc1ncc[nH]1,inactive
8,C[C@@H]1CN([C@H](C)CO)C(=O)Cc2cc(NS(=O)(=O)c3cn(C)cn3)ccc2O[C@H]1CN(C)C(=O)NC1CCCCC1,inactive
9,C[C@@H]1CN([C@H](C)CO)C(=O)c2cc(NC(=O)Cc3ccccc3)ccc2O[C@H]1CN(C)S(=O)(=O)c1ccccc1,inactive
10,Cc1noc(C)c1S(=O)(=O)Nc1ccc2c(c1)CC(=O)N([C@@H](C)CO)C[C@@H](C)[C@H](CN(C)S(=O)(=O)c1cn(C)cn1)O2,inactive
11,COc1ccc(NC(=O)Nc2ccc3c(c2)C(=O)N([C@H](C)CO)C[C@H](C)[C@H](CN(C)Cc2ccc(C(=O)O)cc2)OCCCC[C@H](C)O3)cc1,inactive
12,C[C@@H]1CN([C@@H](C)CO)C(=O)c2cc(NC(=O)CCC(F)(F)F)ccc2O[C@@H](C)CCCCO[C@H]1CN(C)S(=O)(=O)c1ccc(F)cc1,inactive
13,C[C@@H]1CN([C@@H](C)CO)S(=O)(=O)c2ccc(C#Cc3ccccc3F)cc2O[C@H]1CN(C)C(=O)c1ccc2c(c1)OCO2,inactive
14,C[C@H](CO)N1C[C@H](C)[C@@H](CN(C)C(=O)Nc2ccc(C(F)(F)F)cc2)Oc2c(NC(=O)Nc3ccc(C(F)(F)F)cc3)cccc2C1=O,active
15,C[C@@H]1CN([C@H](C)CO)C(=O)c2cccc(NC(=O)c3ccncc3)c2O[C@@H]1CN(C)S(=O)(=O)c1cn(C)cn1,inactive
16,COc1ccc(S(=O)(=O)N(C)C[C@H]2OCCCC[C@@H](C)Oc3ccc(NC(=O)Nc4cccc5ccccc45)cc3C(=O)N([C@@H](C)CO)C[C@H]2C)cc1,inactive
17,C[C@H]1CCCCO[C@@H](CN(C)C(=O)Nc2ccccc2)[C@@H](C)CN([C@@H](C)CO)C(=O)c2cc(NC(=O)c3ccncc3)ccc2O1,inactive
18,O=C(CCC1CCCC1)N1CCCC1,inactive
19,COc1ccc(NC(=O)N(C)C[C@@H]2Oc3c(NC(=O)c4cc(C)nn4C)cccc3C(=O)N([C@@H](C)CO)C[C@@H]2C)cc1,inactive
20,O=C(C[C@@H]1CC[C@H](NC(=O)c2ccc(F)cc2)[C@H](CO)O1)NCc1ccncn1,inactive

row,SMILES,cytotoxicity call
1,C[C@H]1CN([C@@H](C)CO)S(=O)(=O)c2ccc(C#Cc3ccncc3)cc2O[C@@H]1CN(C)C(=O)C1CCC1,inactive
2,C[C@@H]1CN([C@@H](C)CO)C(=O)CCCn2cc(nn2)CO[C@H]1CN(C)C(=O)C1CC1,inactive
3,C[C@@H]1CN([C@@H](C)CO)C(=O)Cc2cc(NC(=O)Cn3cnnn3)ccc2O[C@@H]1CN(C)Cc1ccc(C(F)(F)F)cc1,inactive
4,C[C@H](CO)N1C[C@H](C)[C@@H](CN(C)C(=O)Cc2ccccn2)Oc2ncc(-c3ccc(F)cc3)cc2C1=O,inactive
5,OC[C@@H](O)[C@@H](O)[C@@H](O)/C=N/Nc1ccccc1,inactive
6,C[C@H]1CN([C@@H](C)CO)C(=O)c2cc(NS(=O)(=O)c3ccc(Cl)cc3)ccc2O[C@@H]1CN(C)S(=O)(=O)c1cn(C)cn1,inactive
7,CN(C)CC(=O)N[C@H]1CC[C@@H](CC(=O)NCCN2CCCCC2)O[C@H]1CO,inactive
8,COc1ccc(NC(=O)N(C)C[C@H]2Oc3ncc(Br)cc3C(=O)N([C@H](C)CO)C[C@@H]2C)cc1,inactive
9,CC(C)NC(=O)N(C)C[C@@H]1Oc2ccc(NC(=O)c3ccncc3)cc2CC(=O)N([C@H](C)CO)C[C@H]1C,inactive
10,C[C@@H]1CN([C@H](C)CO)C(=O)c2cccc(NS(=O)(=O)c3ccc(F)cc3)c2O[C@@H]1CN(C)S(=O)(=O)c1cccs1,inactive
11,CCCCCCCCCC[C@@H](O)[C@H]1C=C[C@@H]2C(=O)N(c3ccccc3)C(=O)[C@@H]2N1Nc1ccc([N+](=O)[O-])cc1,inactive
12,C=CC[C@@H](CC(=O)NCCO)C(=O)NC[C@@H](OC(=O)[C@@H](CC=C)CC(=O)OC(C)(C)C)c1ccccc1,inactive
13,CC(C)NC(=O)N(C)C[C@H]1Oc2ccc(NS(=O)(=O)c3ccc(Cl)cc3)cc2C(=O)N([C@H](C)CO)C[C@H]1C,inactive
14,C1CC2(CCN1)OCCS2,inactive
15,Cc1ccc(S(=O)(=O)N2C[C@H](O)COC[C@H]3O[C@H](CC(=O)NCc4ccc(Cl)c(Cl)c4)CC[C@@H]32)cc1,inactive
16,C[C@@H]1CN([C@@H](C)CO)S(=O)(=O)c2ccc(-c3cccc(F)c3)cc2O[C@H]1CN(C)S(C)(=O)=O,inactive
17,C[C@@H]1CN([C@H](C)CO)C(=O)Cc2cc(NC(=O)CCN3CCOCC3)ccc2O[C@@H]1CN(C)C(=O)Nc1ccc2c(c1)OCO2,inactive
18,Cc1noc(C)c1NC(=O)N(C)C[C@H]1Oc2ccc(NS(C)(=O)=O)cc2CC(=O)N([C@@H](C)CO)C[C@H]1C,inactive
19,COCCNC(=O)C[C@H]1C[C@@H]2c3cc(NC(=O)CN(C)C)ccc3O[C@@H]2[C@H](CO)O1,inactive
20,CO[C@@H]1CN(C)C(=O)c2ccc(NC(=O)Nc3cccc(F)c3)cc2OC[C@@H](C)N(C(=O)Nc2c(C)noc2C)C[C@@H]1C,inactive

# Source: the antibiotic and cytotoxicity screens of Wong et al. (2023)
